According to the supplement of paper PMC12217912:
The list shows a part of the results. Sequences were assembled here from the parent chain. Values near 0.05 are background.

B1: TEV protease; numbered along this chain (parent)
chain: MGESLFKGPRDYNPISSSICHLTNESDGHTTSLYGIGFGPFIITNKHLFRRNNGTLVVQSLHGVFKVKDTTTLQQHLVDGRDMIIIRMPKDFPPFPQKLKFREPQREERICLVTTNFQTKSMSSMVSDTSCTFPSGDGIFWKHWIQTKDGQCGSPLVSTRDGFIVGIHSASNFTNTNNYFTSVPKNFMELLTNQEAQQWVSGWRLNADSVLWGGHKVFMVKPEEPFQPVKEATQL

Variants of: B1
Assay: raw area under fraction-flipped curve 0-4 h after induction (AUC4h, not background-subtracted), DNA-recorder readout of cleavage of the substrate (dimensionless); higher = more cleavage of the substrate by the protease variant
Conditions: temperature: 34 °C; time window: 0-4 h after rhamnose induction
Experimental: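 In vivo DNA recorder in E. coli TOP10(DE3) ΔrhaA at 34 °C. Each TEVp single-site mutant (parent TEVp 0) is paired with a single-site variant of the 7-mer TEVs (canonical ENLYFQ|S). The substrate sits between flexible linkers in a Bxb1-sfGFP-TEVs-SsrA fusion, so cleavage stabilises Bxb1 and speeds flipping of a recombination array, read by NGS. The value is the raw area under the fraction-flipped curve over 0-4 h after rhamnose induction (AUC4h), with ≥20 reads per time point. It is not background-subtracted; inactive controls average about 0.047.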
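Note: Bxb1 expression induced with 0.2% (w/v) L-rhamnose at OD600 near 0.5, cultures sampled hourly, flipped fraction per protease–substrate barcode pair counted by paired-end Illumina sequencing.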

Row | Variant | area with substrate ENLYFAS | area with substrate ENLYFCS | area with substrate ENLYFES | area with substrate ENLYFGS | area with substrate ENLYFHS | area with substrate ENLYFIS | area with substrate ENLYFLS | area with substrate ENLYFMS | area with substrate ENLYFNS | area with substrate ENLYFPS | area with substrate ENLYFRS | area with substrate ENLYFSS | area with substrate ENLYFTS | area with substrate ENLYFWS | area with substrate ENLYFYS | area with substrate ENLYFDS | area with substrate ENLYFFS | area with substrate ENLYFKS | area with substrate ENLYFVS
1 | R106Y | 0.0638 | 0.0592 | 0.0712 | 0.0648 | 0.0632 | 0.06 | 0.0681 | 0.0612 | 0.0716 | 0.0685 | 0.0622 | 0.0691 | 0.0541 | 0.0528 | 0.0561 | – | – | – | –
2 | R106M | 0.0616 | 0.0595 | – | – | – | 0.0605 | – | 0.0653 | 0.0708 | – | 0.0669 | 0.0719 | 0.0568 | 0.062 | – | 0.0621 | 0.0783 | – | –
3 | M125Q | 0.0765 | 0.0537 | 0.0637 | – | 0.0504 | 0.0698 | – | 0.0617 | 0.0599 | 0.0583 | 0.0219 | – | 0.0579 | 0.0547 | 0.0505 | 0.0366 | 0.0639 | 0.0601 | 0.0473
4 | M125H | 0.066 | 0.0761 | 0.0632 | – | – | 0.0578 | – | 0.0656 | 0.0555 | 0.0633 | 0.0516 | 0.116 | 0.0672 | – | 0.0679 | 0.0535 | 0.0684 | 0.0584 | 0.0441
5 | M125P | 0.0619 | – | 0.0714 | – | – | 0.0551 | – | 0.0324 | 0.0602 | 0.063 | – | 0.0788 | – | – | – | 0.0523 | 0.017 | 0.0524 | –
6 | S127Q | 0.0627 | – | 0.0842 | 0.0343 | 0.0702 | 0.0664 | – | – | – | 0.0626 | – | 0.0644 | 0.0542 | 0.116 | – | 0.0595 | 0.0745 | 0.058 | 0.0706
7 | S127C | 0.0511 | 0.0558 | 0.066 | 0.0448 | 0.0585 | 0.0598 | 0.0638 | 0.0612 | 0.0625 | 0.0542 | – | 0.0568 | 0.0505 | 0.0591 | – | 0.0687 | 0.0768 | – | 0.0671
8 | S130H | 0.0559 | 0.0582 | 0.0588 | – | 0.0343 | 0.0613 | 0.0666 | 0.0701 | – | 0.0377 | – | 0.0587 | – | – | – | – | 0.0544 | 0.0493 | –
9 | F117Q | 0.0495 | – | 0.0587 | – | – | 0.0589 | 0.0565 | 0.0788 | 0.0682 | 0.0587 | 0.0435 | 0.0596 | – | 0.055 | 0.0638 | – | 0.0288 | 0.059 | 0.0535
10 | F117C | 0.0662 | 0.177 | 0.0691 | 0.053 | 0.0629 | 0.0599 | 0.069 | 0.0822 | 0.0615 | 0.0578 | – | 0.057 | 0.058 | – | 0.0476 | 0.0694 | – | 0.0653 | –
11 | E107R | 0.0528 | 0.0504 | 0.0705 | – | 0.0606 | 0.0591 | 0.0567 | 0.0598 | 0.0636 | 0.0633 | 0.054 | 0.0569 | – | 0.0505 | 0.0629 | – | 0.0731 | 0.0856 | –
12 | L99F | 0.08 | – | 0.048 | 0.0502 | – | 0.0407 | 0.0726 | 0.0524 | – | 0.0614 | – | – | – | 0.0403 | 0.0528 | 0.0537 | 0.058 | 0.0608 | –
13 | M122R | 0.0612 | 0.0596 | – | – | – | 0.0583 | 0.0463 | 0.0741 | – | 0.0664 | 0.0779 | – | – | – | – | – | 0.0576 | 0.0547 | –
14 | R87C | 0.0585 | – | – | 0.0551 | 0.0451 | 0.0476 | – | 0.0463 | 0.0657 | 0.0643 | – | 0.0422 | 0.0501 | 0.0528 | – | – | 0.0819 | 0.0638 | –
15 | R87I | 0.0667 | – | 0.054 | – | 0.0524 | 0.057 | – | 0.0712 | – | 0.0513 | 0.046 | 0.0504 | 0.0402 | – | – | 0.0613 | 0.0995 | 0.0617 | 0.0708
16 | R87S | 0.0667 | 0.0566 | 0.0673 | – | 0.0566 | 0.0585 | 0.0631 | 0.0588 | 0.0603 | 0.0566 | – | 0.0591 | 0.0612 | 0.0521 | 0.0618 | 0.0504 | 0.0928 | 0.0687 | –
17 | R102P | 0.0541 | 0.0495 | – | – | 0.0479 | 0.0394 | 0.0685 | 0.0433 | 0.0483 | – | 0.0454 | 0.0636 | 0.0544 | – | 0.0442 | – | 0.0509 | – | 0.0588
18 | I84D | 0.0523 | – | 0.0482 | 0.0485 | – | 0.0411 | – | 0.0583 | 0.0489 | 0.0276 | 0.0393 | – | 0.0566 | – | 0.042 | 0.0356 | 0.0541 | 0.0624 | 0.0494
19 | I84T | 0.0582 | 0.0527 | 0.0474 | – | – | 0.06 | – | – | – | 0.0558 | – | 0.0593 | – | 0.0723 | 0.0647 | – | – | – | –
20 | K100C | 0.0504 | 0.0718 | 0.061 | – | – | 0.0533 | – | 0.0713 | 0.0634 | 0.0585 | 0.0641 | – | 0.0641 | 0.045 | 0.0429 | 0.0456 | 0.0682 | 0.0553 | 0.0608
21 | K98D | 0.0632 | 0.0625 | 0.0674 | – | 0.0443 | 0.065 | 0.069 | 0.0766 | 0.063 | – | – | 0.0658 | 0.0526 | 0.064 | 0.065 | – | 0.0714 | 0.0533 | –
22 | S123C | 0.0604 | 0.0662 | 0.0734 | – | – | – | – | 0.0666 | – | 0.0631 | 0.0529 | 0.0571 | 0.0623 | 0.0564 | 0.0537 | 0.0639 | – | 0.0606 | 0.0527
23 | V78L | 0.0703 | 0.0559 | – | – | – | 0.0585 | – | 0.0617 | 0.0622 | – | – | – | 0.0597 | 0.0714 | 0.0549 | – | 0.0456 | 0.0691 | –
24 | R109V | 0.0656 | – | 0.0644 | 0.0631 | 0.0419 | 0.0514 | 0.066 | 0.068 | 0.0761 | 0.074 | 0.0731 | 0.0667 | 0.0649 | 0.0533 | – | – | 0.0622 | 0.0685 | 0.0509
25 | L77C | 0.0877 | 0.055 | – | – | 0.0584 | 0.0575 | – | 0.0646 | 0.0654 | 0.0635 | – | – | 0.0754 | 0.0633 | – | 0.0415 | 0.0625 | 0.0583 | 0.051
26 | P89M | 0.0523 | 0.0491 | 0.0615 | – | – | 0.0512 | 0.0421 | 0.0431 | – | – | 0.0459 | – | 0.0453 | 0.0448 | – | – | 0.071 | – | –
